From the supplement of paper PMC4967469

Assays:
Assay in all cases: Viability of human cancer cell lines after 72 h of drug (GDSC screen)
Elesclomol = compound: CN(NC(=O)CC(=O)NN(C)C(=S)c1ccccc1)C(=S)c1ccccc1 [Elesclomol]; details: top dose 0.2 µM; top dose inferred
Procedure: (§1)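 Human cancer cell lines in 384-well plates, medium with 10% serum, drug for 72 h over a 256-fold dose range (nine 2-fold or five 4-fold steps up to the top dose). Adherent lines were fixed and stained with the nucleic acid dye Syto60, suspension lines read with resazurin; signal relative to control wells, capped at 0 and 100%. One two-parameter sigmoid per drug and line, fitted in a mixed model over all curves with the slope shared within a line.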

NSC-87877 = compound: O=S(=O)(O)c1ccc2cc(N=Nc3cc(S(=O)(=O)O)c4cccnc4c3O)ccc2c1 [NSC-87877]; details: top dose 16 µM; top dose inferred
Procedure: as §1

Masitinib = compound: Cc1ccc(NC(=O)c2ccc(CN3CCN(C)CC3)cc2)cc1Nc1nc(-c2cccnc2)cs1 [Masitinib]; details: top dose 20 µM
Procedure: as §1

BX-912 = compound: O=C(Nc1cccc(Nc2ncc(Br)c(NCCc3cnc[nH]3)n2)c1)N1CCCC1 [BX-912]; details: top dose 10.24 µM; top dose inferred
Procedure: as §1

Bleomycin = compound: Cc1c(N)nc([C@H](CC(N)=O)NC[C@H](N)C(N)=O)nc1C(=O)N[C@H](C(=O)N[C@H](C)[C@@H](O)[C@H](C)C(=O)N[C@H](C(=O)NCCc1nc(-c2nc(C(=O)NCCC[S+](C)C)cs2)cs1)[C@@H](C)O)[C@@H](OC1OC(CO)C(O)C(O)C1OC1OC(CO)C(O)C(OC(N)=O)C1O)c1cnc[nH]1 [Bleomycin]
Procedure: as §1

OSI-930 = compound: O=C(Nc1ccc(OC(F)(F)F)cc1)c1sccc1NCc1ccnc2ccccc12 [OSI-930]; details: top dose 10.24 µM
Procedure: as §1

VNLG/124 = compound: CCCC(=O)OCc1ccc(OC(=O)/C=C(C)/C=C/C=C(C)/C=C/C2=C(C)CCCC2(C)C)cc1 [VNLG/124]; details: top dose 5.12 µM; top dose inferred
Procedure: as §1

LAQ824 = compound: O=C(/C=C/c1ccc(CN(CCO)CCc2c[nH]c3ccccc23)cc1)NO [LAQ824]; details: top dose 1.024 µM; top dose inferred
Procedure: as §1

[1] = top dose 50 µM, screen: GDSC drug entry 1378, top dose inferred
[2] = top dose 64 µM, screen: GDSC drug entry 190

Row | Cell Line | AUC (Elesclomol) | IC50 (Elesclomol) [nM] | AUC (NSC-87877) | IC50 (NSC-87877) [µM] | AUC (Masitinib) | IC50 (Masitinib) [µM] | AUC (BX-912) | IC50 (BX-912) [µM] | AUC (Bleomycin; [1]) | IC50 (Bleomycin; [1]) [µM] | AUC (OSI-930) | IC50 (OSI-930) [µM] | AUC (VNLG/124) | IC50 (VNLG/124) [µM] | AUC (LAQ824) | IC50 (LAQ824) [nM] | AUC (Bleomycin; [2]) | IC50 (Bleomycin; [2]) [µM]
1 | MM1S (myeloma, suspension) | 0.562 | 18.3 |  |  |  |  |  |  |  |  |  |  |  |  |  |  |  | 
2 | NB17 (neuroblastoma, adherent) | 0.489 | 11.6 | 0.612 | 2.13 | 0.769 | 8.63 | 0.966 | > 10.2 | 0.759 | 19.9 | 0.886 | > 10.2 | 0.97 | > 5.12 |  |  |  | 
3 | NCI-H748 (small cell lung carcinoma, suspension) |  |  | 0.974 | > 16 | 0.957 | > 20 | 0.8 | 6.61 |  |  | 0.981 | > 10.2 | 0.977 | > 5.12 | 0.385 | 28.3 | 0.772 | 31.8
4 | NCI-H1299 (large cell lung carcinoma, adherent) |  |  |  |  | 0.981 | > 20 | 0.945 | > 10.2 | 0.474 | 2.61 | 0.983 | > 10.2 | 0.983 | > 5.12 |  |  | 0.273 | 0.771
5 | NCI-H2171 (small cell lung carcinoma, suspension) |  |  | 0.99 | > 16 | 0.946 | > 20 | 0.477 | 0.559 |  |  | 0.978 | > 10.2 | 0.991 | > 5.12 | 0.443 | 45.7 | 0.978 | > 64
6 | NCI-H2196 (small cell lung carcinoma, adherent) |  |  | 0.977 | > 16 | 0.779 | 8.59 | 0.883 | > 10.2 |  |  | 0.968 | > 10.2 | 0.98 | > 5.12 | 0.544 | 84.8 | 0.778 | 27.4
7 | NK-92MI (lymphoid neoplasm, suspension) |  |  | 0.953 | > 16 |  |  | 0.864 | 7.92 |  |  |  |  |  |  | 0.348 | 25 | 0.138 | 0.33
8 | PANC-10-05 (pancreas, adherent) |  |  | 0.98 | > 16 | 0.879 | > 20 | 0.897 | > 10.2 | 0.543 | 4.23 | 0.963 | > 10.2 | 0.952 | > 5.12 | 0.435 | 40.3 | 0.287 | 0.834
9 | PC-3 (prostate, adherent) |  |  | 0.974 | > 16 | 0.9 | > 20 | 0.933 | > 10.2 | 0.606 | 6.5 | 0.979 | > 10.2 | 0.961 | > 5.12 | 0.53 | 78.6 | 0.648 | 11.3
10 | SCC-3 (B-cell lymphoma, suspension) |  |  | 0.99 | > 16 | 0.889 | 12 | 0.968 | > 10.2 |  |  | 0.981 | > 10.2 | 0.995 | > 5.12 | 0.536 | 78.1 | 0.516 | 4.37
11 | SIG-M5 (acute myeloid leukaemia, suspension) |  |  | 0.986 | > 16 | 0.903 | 14.6 | 0.414 | 0.396 |  |  | 0.774 | 3.06 | 0.01 | < 0.02 | 0.224 | 13.2 | 0.231 | 0.861
12 | SNU-175 (large intestine, suspension) |  |  |  |  | 0.643 | 3.02 | 0.651 | 1.63 |  |  | 0.984 | > 10.2 | 0.987 | > 5.12 |  |  |  | 
13 | SNU-475 (liver, adherent) |  |  | 0.981 | > 16 | 0.927 | > 20 | 0.956 | > 10.2 |  |  | 0.987 | > 10.2 | 0.987 | > 5.12 | 0.688 | 201 | 0.858 | 43.1
14 | SU-DHL-1 (anaplastic large cell lymphoma, suspension) |  |  | 0.992 | > 16 | 0.915 | 14.3 | 0.941 | 9.22 |  |  | 0.968 | > 10.2 | 0.997 | > 5.12 | 0.662 | 157 | 0.406 | 2.37
15 | TALL-1 (T-cell lymphoblastic leukaemia, suspension) |  |  | 0.97 | > 16 | 0.912 | > 20 | 0.866 | 8.47 |  |  | 0.94 | > 10.2 | 0.986 | > 5.12 | 0.583 | 106 | 0.96 | > 64
16 | TE-441-T (rhabdomyosarcoma, adherent) |  |  | 0.978 | > 16 | 0.951 | > 20 | 0.827 | 5.92 |  |  | 0.943 | > 10.2 |  |  | 0.721 | 263 | 0.766 | 22.7
17 | THP-1 (acute myeloid leukaemia, suspension) |  |  | 0.989 | > 16 |  |  | 0.856 | 6.99 |  |  | 0.931 | > 10.2 | 0.958 | > 5.12 | 0.523 | 73.5 |  | 
18 | UACC-812 (breast, adherent) |  |  | 0.989 | > 16 | 0.907 | > 20 | 0.991 | > 10.2 |  |  | 0.988 | > 10.2 | 0.991 | > 5.12 | 0.919 | > 1020 | 0.924 | > 64
19 | YMB-1-E (breast, adherent) |  |  |  |  | 0.861 | > 20 | 0.975 | > 10.2 |  |  | 0.941 | > 10.2 | 0.969 | > 5.12 |  |  |  | 

Lines with a small IC50 respond at low doses; a limit (>, <) means that the fit lies beyond the doses tested. AUC is the area under the same curve over the 256-fold range up to the top dose, as a fraction: 1 means no effect, lower means more sensitive. For some of these results: The top dose, if marked as inferred, is not printed in the source and was worked back from the curve model. For some of these results: Where an entry number is given, a second screen of the drug exists; the two often differ.
